Sequences and labels used below:
B1: CPEB3 Ribozyme (parent)
chain: UAACAGGGGGCCACAGCAGAAGCGUUCACGUCGCAGCCCCUGUCAGAUUCUGGUGAAUCUGCGAAUUCUGCUGUAUAUCUC

Read counts are not given, so values of variants with three or more changes are uncertain.

In the data set the parent is B1. The data set can be described thus: self-cleavage, relative activity (ratio to wild type); higher = more cleavage; in vitro, sequencing. An outline of the steps: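 CPEB3 self-cleaving ribozyme mutant libraries were made by rounds of error-prone PCR, barcoded, and transcribed in vitro with T7 RNA polymerase for 5 hours at 37°C. Cleavage occurred during transcription and a 15 min DNase I step before EDTA stop. RNAs were reverse transcribed with template switching and Illumina-sequenced, with DNA sequencing mapping barcodes to variants. Relative activity is the variant's cleaved/total read fraction divided by wild type's (minimum 5 reads), averaged across three batches.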
Consider UGACAGGGGGCCACAGCGGAAGCGUUCACGUCGCAGCCCCUGUCAGAUCCUGGUGAAUCCGCGAAUUCUGCUGUAUAUCUC [A2G A18G U49C U60C], for which the self-cleavage came to 0.19.
Then UGACAGGGGGCCACAGCAGUAGCGUUCACGUCGCAGCCCCUGUCAGAUUCUGGUGAAUCAGCGAAUUCUGCUGUAUAUCUC [A2G A20U U60A], with 0.49.
As for UGACAGGGGGCCACAGCAGAGGCGCUCACGUCGCAGCCCCUGUCAGAUUCUGGUGAACCUGCGAAUUCUGCUGUAUAUCUC [A2G A21G U25C U58C], the figure is 0.05.
UGACAGGGGGCCACAGCAGGAGCGUUCACGUCGCAGCCCCUGUCAGAUUCUGGUGAAUCUGCGAGUCCUGCUGUACAUCUC [A2G A20G A65G U67C U76C]: the self-cleavage came to 0.11.
As for UGACAGGGGGCCACGGCAGAAGCGUUCACGACGCAGCCCCUGACAGAUUCUGGAGAAUCUGCGAAUUCUGCUGUAUAUCUC [A2G A15G U31A U43A U54A], the figure is 1; as for UGACAGGGGGCCACGGCAGAAGCGUUCACGUCGCAGCCCCCGUCAGAUUCUGGUGAAUCUGCGAAUUCUGCUGUAUAUCUA [A2G A15G U41C C81A], 0.18; as for UGACAGGGGGCCACAGCUGAAGCGUUCACGUCGCAGCCCCUGCCUGAUUCUGGUGAAUCUGCGAAUUCUGCUGUAUAUCUC [A2G A18U U43C A45U], 0.08.
As to UGACAGGGGGCCACAGCUGGAGCGUUCACCUCGCUGCCCCUGUCAGAUUCUGGUGAAUCUGCGAAUUCUGCCGUAUAUCUC [A2G A18U A20G G30C A35U U72C], the self-cleavage was 0.04.
Then UGACAGGGGGCCACAGCUGAAGCGGUCACGUCGCGGCCCCUGUCAGAUUCUGGUGAAUCUGCGAGUUCUGCUCUAUAUCUC [A2G A18U U25G A35G A65G G73C], with 0.07; and UGACAGGGGGCCACGGCAGAAGCGUUCACGUCGCAGCCCCUGUCAGAUACUGGUGGAUCUGCGAACUCUGCCGUAUAUCUC [A2G A15G U49A A56G U66C U72C], with 0.07; and UGACAGGGGGCCACAGCUGAAGUGUUCACGUCGCAGCCCCUGUCAGAUUCUGGUGAAUCUGCGAAUUCUGCUGUAUAUCUC [A2G A18U C23U], with 0.42.
Then UGACAGGGGGCCACAGCAGAGGCGCUCACGUCGCAGCCCCUGUCAGAUUCUGGUGAAUCUGCGAAUUCUGCUGUAUAUCCC [A2G A21G U25C U80C], with 0.5.
As for UGACAGGGGGCCACAGCUGAAGCGUUCACGUCGCAGCCCCUGCCAGAUUCUGGUGAAACCGCGAAUUCUGCUGUAUAUCUC [A2G A18U U43C U58A U60C], the self-cleavage turned out to be 0.1.
As for UGACAGGGGGCCACUGCAGAAGCGCUCACGUCGCAGCCCCAGUCAGGUUCUGGUGAAUCUGCGAAUUCUGCUGUAUAUCCC [A2G A15U U25C U41A A47G U80C], the figure is 0.06; as for UGACAGGGGGCCACAGCCGAAGCGUUCACGUCGCAGCCCCUGUCAGAUUCUGGUGGAUCUGCGAAUUCAGCUGUAUAUCUC [A2G A18C A56G U69A], 0.15.
As for UGACAGGGGGCCACAGCUGAAGCGUUCACGUCGCAGCCCCUGUCAGAUCCUGGUGAAUCUGCGAAUUCUGCUGUAUAUCAC [A2G A18U U49C U80A], the figure is 0.33; as for UGACAGGGGGCCACAGCAGGAGCGUUCGCGUCGCAGCCCCUGCCAGAUUCUGGUGAAUCUGCGAAUUCUGCUGUAUAUCUC [A2G A20G A28G U43C], 0.44.
Then UGACAGGGGGCCACAGCUGAAGCGUUCACGUCGCAGCCCCUGUCGGAUUCUGGUGAAUCUGCGAAUUCUGCUGUAUAUCUC [A2G A18U A45G], with 0.44.
UGACAGGGGGCCACAGCGGAAGCGUUCACGUCGCAGCCCCCGUCAGAUUCUGGUGAUCCUGCGAAUUCUGCUGUAUAUCUC [A2G A18G U41C A57U U58C]: the self-cleavage was 0.27.
Then UGACAGGGGGCCACAGCUGAAGCGUUCACGUCGCAGCCCCUGUCAGGUUCUGGUGAAUCUGCGAAUUCUGCUGAAUAUCUC [A2G A18U A47G U74A], with 0.62; and UGACAGGGGGCCACAGCAGAGGCGUUCAUGUCGCAGCCCCUGUCAGAUUCUGGUUAAUCUGCGAAUUCUGCCGUAUAUCUC [A2G A21G C29U G55U U72C], with 0.2; and UGACAGGGGGCCACUGCUGAGGCGUUCACGUCGCAGCCCCUGUCAGAUUCUGGUGAAUCUGCGAAAUCUGCCGUAUAUCUC [A2G A15U A18U A21G U66A U72C], with 0.03.
In the case of UGACAGGGGGCCACGGCAGAAGCGUUCACGUCGCAGCCCCUGUCAGACUCUGGUGAAUCUGCGAAUUCUGCUGUAUAUCUC [A2G A15G U48C], the self-cleavage came to 0.35.
As for UGACAGGGGGCCACUGCAGAAGCGUUCACGUCGCUGCCCCUGUCAGAUUCUGGUGAAUCUGCGAAUUCUGCAGUAUAUCUC [A2G A15U A35U U72A], the figure is 0.7.
Then UGACAGGGGGCCACAGCAGUAGCGUUCACGUCGCAGCCCCUGACAGAUUCUGGUGAAUCUGCGUAUUCUGCUGUAUAUCUC [A2G A20U U43A A64U], with 0.08; and UGACAGGGGGCCACAGCAGAUGCGUUCGCGUCGCAGCCCCUGUCAGAUUCUGGUGAAUCUGCGAAUUCUGCUGUAUAUCUC [A2G A21U A28G], with 0.36; and UGACAGGGGGCCACAGCAGAAGCGUUCGCGUCGCUGCCCCAGUCAGUUCCAGGUGAAUCUGCGAAUUCUGCUGUAUAUCUC [A2G A28G A35U U41A A47U U49C U51A], with 0.08.
Then UGACAGGGGGCCACAGCAGAGGCGCUCACGUCGCAGUCCCUGUAAGAUUCUGGUGGAUCUGCGAAUUCUGCUGUAUAUCUC [A2G A21G U25C C37U C44A A56G], with 0.28; and UGACAGGGGGCCACAGCAGUAGCGUUCACGUCGCAGCCCCUGCCAGAUUCUGGGGUAUCUGCGAAUUCUGCUGUAUAUCUC [A2G A20U U43C U54G A56U], with 0.2; and UGACAGGGGGCCACAGCAGCAGCGUUCACGUCGCAGCCCCUGUCAGAUUCUGGCGAAUCUGCGAAUCCUGCUGUAUAUCUC [A2G A20C U54C U67C], with 0.16.
UGACAGGGGGCCACAGCAGAGGCGUCCACGUCGCAGCCCCUGUCAGAUACUGGUGAAUCUGCGGAUUCUGCUGUAUAUCUC [A2G A21G U26C U49A A64G]: the self-cleavage came out at 0.02.
Then UGACAGGGGGCCACAGCAGUAGCGUUCACGACGCAGCCCCUGUCAGAUUCUGGUGAAUCUGCGAAAUCUGCUGUAUAUCUC [A2G A20U U31A U66A], with 0; and UGACAGGGGGCCACAGCAGGAGCGUUCUCGUCGCAGCCCCUGUCAGAUUCUGGUGGAUCUGCGAAUUCUGCUGUAUAUCCC [A2G A20G A28U A56G U80C], with 0.62; and UGACAGGGGGCCACUGCAGAAGCGUUCACGUCGCAGCCCCUGUCGGAUUCUGGUGAAUCUGCGAAUUCUGCAGUAUAUCUC [A2G A15U A45G U72A], with 0.75.
